According to the supplement of paper PMC11417369:
± gives the standard deviation of the averaged measurements. Some of the results follow.

Each sequence was assayed on PfAP2-LT AP2 domain (GST-tagged) (assay: gcPBM binding intensity (ln(normalized median fluorescence intensity)); higher = stronger DNA binding).
How it was run: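 Binding intensity is defined as the maximum Masliner-normalised natural-log median intensity across replicate spots for either probe orientation. It was measured on an Agilent 4 × 180k array of primer-extended double-stranded 36-bp intergenic genomic probes and negative controls, to which GST-tagged P. falciparum DNA-binding domains made in E. coli were applied for 1 h in 1× PBS with 1% milk, 0.2 mg/ml BSA, 0.5% salmon testes DNA and 0.03% Triton X-100. Detection was by Alexa488 anti-GST antibody and scanning at 488 nm.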

Sequence	gcPBM binding intensity (ln)
TAATATATTAAAAATAGTACATAAGAAAAATAAGTA [XGTACX_site7957]	8.79 ± 0.49
CAAAATTATCAGAATCGTACATTTTTAACATATAAT [XGTACX_site7909]	8.57 ± 0.41
AAAACTATATTAATGTGTACACATCAAAATATTAAT [XGTACX_site6767]	8.88 ± 0.49
ATTATAAATATCAGTGCACACATTTCTACGCAAAGT [CACACA_site4420]	9.18 ± 0.38
TATGTAAAATGTGTTTGTACTTATTTATTATATAAA [XGTACX_site2816]	8.59 ± 0.38
AAGGAGCCTATGAACACACACATGTACAGATATTAA [CACACA_site6107]	9.32 ± 0.52
AGGAAGGAAATAAATCAACACACATATATTATATAT [CACACA_site8678]	9.1 ± 0.58
ATATTTATTTTAATTTTTCTATATAAACTATTATGA [CACACA_negctrl_site739]	8.35 ± 0.55
TTTCTAAGAAAAAAAAAAAAAAAAAAAAAGATACAA [GTGCAC_negctrl_site525]	8.31 ± 0.49
TATATATATTATATATGTACATATTGTATATTTTTG [XGTACX_site4564]	8.85 ± 0.42
TATTTTTATAATATATGTACATATATATATATATTA [XGTACX_site5343]	8.64 ± 0.36
ACATATTATATGAATACACACAAAAACTTATCGGTA [CACACA_site3439]	9.12 ± 0.39
TTGTTATATTACAGTAGTACATTTAAAATCTACTAC [XGTACX_site2620]	8.72 ± 0.38
TTTTTTTTTTTTTTTTGTACGTAAAAAAATATATAC [XGTACX_site1290]	8.33 ± 0.41
TTACATTATATACATACACACCCACCCACAAAAAAA [CACACA_site8187]	9.77 ± 0.085
AATATTTATACTATAACACACATACAGACAAAAAAA [CACACA_site6396]	8.97 ± 0.37
ATTTTTATTTACAACCCCAAAAAGGAAAAACATAAA [CACACA_negctrl_site1169]	8.47 ± 0.37
AAGACAATATATGCAGTGCATATACATACATATATA	8.92 ± 0.44
GCATAATATACTCTTACACACCATTTCTAAATACAT [CACACA_site4912]	9.12 ± 0.45

Sequence	gcPBM binding intensity (ln)
AAAAAAAAAAAAAAAAGTACGTATTTTTTTTAAAAT [XGTACX_site2654]	8.55 ± 0.47
ATATATATATATATATGTACATATTTTATTTGAAAT [XGTACX_site7411]	9.495 ± 0.078
ACAGGAAAAAACAATTGTACATGTATATATATATAT [XGTACX_site7677]	9.72 ± 0.4
CAAAATAAAAATTAATGTACATAAAAAATGAATATA [XGTACX_site1085]	8.93 ± 0.45
ATACATATATACATATGTACATATATATATATATAT [XGTACX_site8206]	9.525 ± 0.021
AAAAAAATAATTTGTAGTACGATTCAATGAAAAGGC [XGTACX_site1287]	8.9 ± 0.43
TAAATATTTTTTTAGACACACATATATCTATGATAT [CACACA_site1107]	8.68 ± 0.42
CCCACAAAGGAATATACACACATATATATATATATA [CACACA_site4091]	9.95 ± 0.18
ATAAAATTGTATAACTGTACATATATATATATATAT [XGTACX_site5596]	9.59 ± 0.25
TCTTTGAATTTTTTAACACACACATGGGTGGATATA [CACACA_site8474]	9.04 ± 0.38
TTGAAAATGAAAAAATGTACTTAAAAAAAAGGAACA [XGTACX_site8664]	8.71 ± 0.54
ATGCTATATTAAAAACGTACAAACTGTTTAGAAAAA [XGTACX_site8943]	8.62 ± 0.47
TTTTTTCTTAAAGACATATATTTATTTGGTAAAACA [XGTACX_negctrl_site243]	8.21 ± 0.44
TATTTTCTTTTTCTTGTACACACATAATATGGATGA [CACACA_site8168]	9.01 ± 0.45
TATTTACATTTATGTGCACACATTCCATTTGAAAGT [CACACA_site1954]	9.18 ± 0.47
CGGACATACATAGGAACATGCAAAATTTTTTATTTT [TGCATGCA_site575]	8.79 ± 0.55
AATAGAAAAAAAAAATGTACACATATAAAAGCATAT [XGTACX_site6306]	9.12 ± 0.54
TATATTATTTATTTTTGTACATATTATGAATGAATA [XGTACX_site3971]	8.54 ± 0.47
TTACCTTTAAATGGATGTACAGAAATTTAAATTGTT [XGTACX_site7044]	8.48 ± 0.42

Sequence	gcPBM binding intensity (ln)
CTTCCTTCTAAATGCACACGGAAAGTATAAATGTAT [CACACA_site2501]	8.88 ± 0.4
AGAGATATAAGAAAAGCACACACACCCAAAAAAAAA [CACACA_site8917]	9.96 ± 0.29
TATATACAAAAAATATGTACATATATATATATATAT [XGTACX_site3497]	9.69 ± 0.31
AAAAAATAAATAAATACACACACACTAATATATATA [CACACA_site8488]	9.72 ± 0.24
ATTATTTATATTATGGTGCATAATTTTGGGTTTCTT	9.02 ± 0.48
TATTTGTTTTTATATAGTACATAAATATATATATAT [XGTACX_site7834]	8.63 ± 0.4
AAAATAAATATGAACACACACATTTATGCCTTTAAA [CACACA_site1271]	9.14 ± 0.37
TGAAAAGTAAAATACACACACATAATCTAATTTATA [CACACA_site7024]	9.29 ± 0.3
GGTTAACATAAATATATACACACCAATGATGGCATT [CACACA_site1568]	9.04 ± 0.32
CCTCTTAATATGTGCACACTAAATTATAACATAATT [CACACA_site3259]	9.05 ± 0.38
TGGATTTTGTATTAATGTACATATATATATATATAT [XGTACX_site4442]	9.2 ± 0.21
TATATTATTTATTAGACACACATTATTAATATATTT [CACACA_site1078]	8.74 ± 0.45
AACAACATTTTGTAATGTACATATTTACTTATATTC [XGTACX_site7251]	8.76 ± 0.43
CAGATAGACTTATATGCATGCATTCACATACCAACA [TGCATGCA_site163]	8.98 ± 0.35
AAATAATTAGAAATAGTGCACATAATTAAGGGATAC	9.28 ± 0.45
TAGAAATATATAAATTGTACATGTTTGTATAATATA [XGTACX_site2097]	8.64 ± 0.46
AAAAAAGAAGAGCACACACACATATATAAATATAAA [CACACA_site631]	9.69 ± 0.33
TTATAATAAAAGGCTTTACAATTATTAAACAAATAA [GTGCAC_negctrl_site480]	8.23 ± 0.59
GCCATTGTACCATCCACACACATATATATCTGTATA [CACACA_site5490]	9.63 ± 0.39
